{"sequences": {"note": "By UniProt entry, the sequences of proteins in these tests, tags left out. Where a name states a change or a piece, a line headed by the entry shows the natural chain unless it says otherwise.", "UniProt P06243": "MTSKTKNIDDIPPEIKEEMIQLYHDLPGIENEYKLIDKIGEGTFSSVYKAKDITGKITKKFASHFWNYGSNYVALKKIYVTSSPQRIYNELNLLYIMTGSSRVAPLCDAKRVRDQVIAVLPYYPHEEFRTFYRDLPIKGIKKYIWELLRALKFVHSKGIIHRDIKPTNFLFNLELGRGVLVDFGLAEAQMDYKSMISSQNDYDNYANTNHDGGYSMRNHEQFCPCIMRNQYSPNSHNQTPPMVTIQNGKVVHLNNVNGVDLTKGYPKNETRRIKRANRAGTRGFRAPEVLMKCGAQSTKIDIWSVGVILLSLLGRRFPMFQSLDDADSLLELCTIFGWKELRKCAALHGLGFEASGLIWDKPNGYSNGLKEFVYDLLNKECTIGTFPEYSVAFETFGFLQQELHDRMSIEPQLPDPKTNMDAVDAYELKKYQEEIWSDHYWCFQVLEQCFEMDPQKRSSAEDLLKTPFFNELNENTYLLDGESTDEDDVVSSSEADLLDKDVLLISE"}, "source": "paper PMC2682205", "about": "“Cdc7p-Dbf4p Regulates Mitotic Exit by Inhibiting Polo Kinase” (PLoS Genetics, 2009)", "key": {"[1]": {"target": "Endogenous HA3-Cdc7p-Dbf4p complex (budding yeast (S. cerevisiae; endogenous in a W303 derivative)) (UniProt P06243+P32325)", "assay": "co-IP; yeast at endogenous protein levels, nocodazole arrest; extracts in NP-40 lysis buffer (20 mM Tris-HCl, 150 mM NaCl, 0.5% NP-40, 1 mM EGTA); HA3-Cdc7p precipitated with 12CA5 on protein A-Sepharose; blots for Cdc7, Dbf4 and Cdc5-Myc"}, "[2]": {"target": "T1, Gal4 DNA binding domain (GBD) fusion to Dbf4p_(67–227) (budding yeast (S. cerevisiae)) (UniProt P32325)", "T1 sequence": "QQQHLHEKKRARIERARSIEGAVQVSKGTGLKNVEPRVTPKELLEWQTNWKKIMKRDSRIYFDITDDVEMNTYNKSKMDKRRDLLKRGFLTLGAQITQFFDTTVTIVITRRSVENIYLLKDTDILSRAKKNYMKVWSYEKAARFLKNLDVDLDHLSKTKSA", "assay": "two-hybrid; GBD-DBF4 baits and GAD-CDC5 preys co-transformed, 10-fold serial dilutions spotted on SCM–Trp–Leu–His with 2 mM 3AT, 30°C, 2 to 3 days (Figure 1A, C)"}, "[3]": {"target": "HA-Cdc7p-Dbf4-NΔ109p (budding yeast (S. cerevisiae)) (UniProt P06243+P32325)", "assay": "co-IP; Sf9 cells co-infected with baculoviruses for HA-Cdc7p, 3Myc-NΔ65Polo and Dbf4p derivatives; immunoprecipitation with 12CA5 (anti-HA); blots with 9E10 (Myc), anti-Cdc7p and anti-Dbf4p"}, "[4]": {"target": "HA-Cdc7p-Dbf4p kinase (wild type, full length) (budding yeast (S. cerevisiae)) (UniProt P06243+P32325)", "assay": "co-IP; Sf9 cells co-infected with baculoviruses for HA-Cdc7p, 3Myc-NΔ65Polo and Dbf4p derivatives; immunoprecipitation with 12CA5 (anti-HA); blots with 9E10 (Myc), anti-Cdc7p and anti-Dbf4p"}, "[5]": {"target": "HA-Cdc7p-Dbf4-NΔ65p (budding yeast (S. cerevisiae)) (UniProt P06243+P32325)", "assay": "co-IP; Sf9 cells co-infected with baculoviruses for HA-Cdc7p, 3Myc-NΔ65Polo and Dbf4p derivatives; immunoprecipitation with 12CA5 (anti-HA); blots with 9E10 (Myc), anti-Cdc7p and anti-Dbf4p"}, "[6]": {"target": "HA-Cdc7p-Dbf4-NΔ221p (budding yeast (S. cerevisiae)) (UniProt P06243+P32325)", "assay": "co-IP; Sf9 cells co-infected with baculoviruses for HA-Cdc7p, 3Myc-NΔ65Polo and Dbf4p derivatives; immunoprecipitation with 12CA5 (anti-HA); blots with 9E10 (Myc), anti-Cdc7p and anti-Dbf4p"}}, "note": "Results are given in words; binding and its absence hold for the method and conditions named. For some of these results: Binding seen in cells or lysates may run through a third protein. Some binding calls cover weakened binding; strength is not graded here. Tags and fused reporters may be left off the sequences shown.", "data": [{"binder": "Cdc5-Myc15 (enzyme, UniProt P32562 1-705) MSLGPLKAINDKQLNTRSKLVHTPIKGNTADLVGKENHFKQTKRLDPNNDHHHQPAQKKKREKLSALCKTPPSLIKTRGKDYHRGHFLGEGGFARCFQIKDDSGEIFAAKTVAKASIKSEKTRKKLLSEIQIHKSMSHPNIVQFIDCFEDDSNVYILLEICPNGSLMELLKRRKVLTEPEVRFFTTQICGAIKYMHSRRVIHRDLKLGNIFFDSNYNLKIGDFGLAAVLANESERKYTICGTPNYIAPEVLMGKHSGHSFEVDIWSLGVMLYALLIGKPPFQARDVNTIYERIKCRDFSFPRDKPISDEGKILIRDILSLDPIERPSLTEIMDYVWFRGTFPPSIPSTVMSEAPNFEDIPEEQSLVNFKDCMEKSLLLESMSSDKIQRQKRDYISSIKSSIDKLEEYHQNRPFLPHSLSPGGTKQKYKEVVDIEAQRRLNDLAREARIRRAQQAVLRKELIATSTNVIKSEISLRILASECHLTLNGIVEAEAQYKMGGLPKSRLPKIKHPMIVTKWVDYSNKHGFSYQLSTEDIGVLFNNGTTVLRLADAEEFWYISYDDREGWVASHYLLSEKPRELSRHLEVVDFFAKYMKANLSRVSTFGREEYHKDDVFLRRYTRYKPFVMFELSDGTFQFNFKDHHKMAISDGGKLVTYISPSHESTTYPLVEVLKYGEIPGYPESNFREKLTLIKEGLKQKSTIVTVD", "values": [{"measurement": "binding", "setting": "[1]", "value": "binds"}]}, {"binder": "GAD-Polo_(454–705) (domain or fragment, UniProt P32562 454-705) AVLRKELIATSTNVIKSEISLRILASECHLTLNGIVEAEAQYKMGGLPKSRLPKIKHPMIVTKWVDYSNKHGFSYQLSTEDIGVLFNNGTTVLRLADAEEFWYISYDDREGWVASHYLLSEKPRELSRHLEVVDFFAKYMKANLSRVSTFGREEYHKDDVFLRRYTRYKPFVMFELSDGTFQFNFKDHHKMAISDGGKLVTYISPSHESTTYPLVEVLKYGEIPGYPESNFREKLTLIKEGLKQKSTIVTVD", "values": [{"measurement": "binding", "setting": "[2]", "value": "binds"}]}, {"binder": "3Myc-NΔ65Polo (domain or fragment, UniProt P32562 66-705) ALCKTPPSLIKTRGKDYHRGHFLGEGGFARCFQIKDDSGEIFAAKTVAKASIKSEKTRKKLLSEIQIHKSMSHPNIVQFIDCFEDDSNVYILLEICPNGSLMELLKRRKVLTEPEVRFFTTQICGAIKYMHSRRVIHRDLKLGNIFFDSNYNLKIGDFGLAAVLANESERKYTICGTPNYIAPEVLMGKHSGHSFEVDIWSLGVMLYALLIGKPPFQARDVNTIYERIKCRDFSFPRDKPISDEGKILIRDILSLDPIERPSLTEIMDYVWFRGTFPPSIPSTVMSEAPNFEDIPEEQSLVNFKDCMEKSLLLESMSSDKIQRQKRDYISSIKSSIDKLEEYHQNRPFLPHSLSPGGTKQKYKEVVDIEAQRRLNDLAREARIRRAQQAVLRKELIATSTNVIKSEISLRILASECHLTLNGIVEAEAQYKMGGLPKSRLPKIKHPMIVTKWVDYSNKHGFSYQLSTEDIGVLFNNGTTVLRLADAEEFWYISYDDREGWVASHYLLSEKPRELSRHLEVVDFFAKYMKANLSRVSTFGREEYHKDDVFLRRYTRYKPFVMFELSDGTFQFNFKDHHKMAISDGGKLVTYISPSHESTTYPLVEVLKYGEIPGYPESNFREKLTLIKEGLKQKSTIVTVD", "values": [{"measurement": "binding", "setting": "[3]", "value": "no binding"}, {"measurement": "binding", "setting": "[4]", "value": "binds"}, {"measurement": "binding", "setting": "[5]", "value": "binds"}, {"measurement": "binding", "setting": "[6]", "value": "no binding"}]}, {"binder": "GAD-Polo_(510–705) (domain or fragment, UniProt P32562 510-705) HPMIVTKWVDYSNKHGFSYQLSTEDIGVLFNNGTTVLRLADAEEFWYISYDDREGWVASHYLLSEKPRELSRHLEVVDFFAKYMKANLSRVSTFGREEYHKDDVFLRRYTRYKPFVMFELSDGTFQFNFKDHHKMAISDGGKLVTYISPSHESTTYPLVEVLKYGEIPGYPESNFREKLTLIKEGLKQKSTIVTVD", "values": [{"measurement": "binding", "setting": "[2]", "value": "no binding"}]}]}
